Laboratory results as given in PubChem BioAssay AID540317 (National Center for Advancing Translational Sciences (NCATS), 2011).
The campaign covered roughly 390,000 compounds. About 2,200 (0.56%) were called active. The shares of active, inactive and inconclusive entries below differ from those in the screen. Calls follow the shape of the dose curve; as a rule, active = well fitted inhibition curve with a large enough effect; inconclusive = small, poorly fitted or top-dose-only effect; inactive = no such curve, though single readings can be large or run the other way. Potencies beside an inconclusive call are fits to weak or partial responses and may not hold up.

What follows are compounds tested against Chromobox protein homolog 1 (Homo sapiens) (UniProt P83916) (assay: HTS for Inhibitors of HP1-beta Chromodomain Interactions with Methylated Histone Tails). Details: AlphaScreen HP1-beta / biotin-H3K9me3 peptide binding; series mostly up to 114 µM; activity change, negative = inhibition: at the top concentration.
How it was run: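 HP1-beta protein (50 nM final) preincubated 30 min at room temperature with biotinylated H3(1-18)K9me3 peptide (50 nM) in PBS pH 7.4, 0.01% Tween-20, then compound added for 30 min. AlphaScreen streptavidin donor/nickel chelate acceptor beads (10 ug/mL final), 30 min dark, luminescence read.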
Also: nearly all actives have a fitted effect of over 70% in size.
Potency is read from the fitted curve at half-maximal effect; tags tell the direction and shape of the fitted curve.

Sequence of UniProt P83916 (P83916 whole entry, looked up): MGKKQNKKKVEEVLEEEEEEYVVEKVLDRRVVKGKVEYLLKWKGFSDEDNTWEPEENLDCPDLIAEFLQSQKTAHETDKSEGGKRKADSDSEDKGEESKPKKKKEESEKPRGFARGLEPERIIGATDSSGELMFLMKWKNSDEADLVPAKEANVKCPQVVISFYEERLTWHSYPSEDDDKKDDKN

Compound | Potency | activity change, negative = inhibition
CCOC(=O)C1C(=O)C=C(c2ccc([N+](=O)[O-])cc2)CC1c1ccccc1 (stereo not given) | inconclusive: 28.2 µM [inhibitor, partial curve] | –
CN(Cc1ccccc1)S(=O)(=O)c1ccc(NC(=S)NC(=O)C(C)(C)C)cc1 | – | inactive: 17.7%
Cc1cc(Br)ccc1NC(=O)CN(C)C(=O)Cn1c(=O)cnc2ccccc21 | inconclusive: 89.1 µM [inhibitor, single point] | –
COc1ccccc1NS(=O)(=O)c1cc(NC(C)=O)ccc1N1CCCCC1 | inconclusive: 56.2 µM [inhibitor, single point] | –
O=[N+]([O-])c1ccc(S(=O)(=O)NCC(c2cccnc2)N2CCOCC2)cc1 (stereo not given) | – | inactive: 33%
COc1ccc(-c2nc(S(=O)(=O)c3ccc(C)cc3)c(N3CCCC3)o2)cc1 | active: 79.4 µM | –
CC(C)(c1ccccc1)c1ccc(OCCCN2CCNCC2)cc1 | inconclusive: 14.1 µM [inhibitor, full curve, poor fit] | –
OCC1CCCN(C(=S)Nc2ccc(Nc3ccccc3)cc2)C1 (stereo not given) | inconclusive: 50.1 µM [inhibitor, partial curve, poor fit] | –
CCC(CC)N1CCN(C(=O)c2cccc(Cl)c2)CC1 | inconclusive: 14.1 µM [inhibitor, full curve, poor fit] | –
COc1cccc(CNCc2cccc(Br)c2)c1OC | inconclusive: 56.2 µM [inhibitor, partial curve, poor fit] | –
Cc1ccc(-c2nc3cccc(C)n3c2Nc2ccc(F)cc2)o1 | inconclusive: 50.1 µM [inhibitor, partial curve] | –
CC1CCCN(c2ccc(C(=O)Nc3ccc4c(c3)OCO4)cc2[N+](=O)[O-])C1 (stereo not given) | inconclusive: 25.1 µM [inhibitor, full curve] | –
COC(=O)c1cc(NC(=O)Cn2nc(-c3ccc(C)c(C)c3)ccc2=O)cc(C(=O)OC)c1 | inconclusive: 31.6 µM [inhibitor, single point] | –
O=C(C=C1SCCS1)/C=C/c1ccco1 | inconclusive: 56.2 µM [inhibitor, partial curve, poor fit] | –
Cc1ccc(-c2ccc(/C=C(\C#N)C(N)=S)o2)c([N+](=O)[O-])c1 | inconclusive: 10 µM [inhibitor, full curve] | –
CCCC1OC(c2ccco2)OCC1CC (stereo not given) | – | inactive: 8.01% [at 57 µM]
CCCOc1ccccc1C(=O)N(Cc1ccc(C)o1)C1CCS(=O)(=O)C1 (stereo not given) | – | inactive: 26.8%
Cc1cc(C)cc(OCCCCn2cncn2)c1 | inconclusive: 28.2 µM [inhibitor, full curve] | –
COc1ccc(NC(=O)CN2CCc3ccccc3C2)c([N+](=O)[O-])c1 | inconclusive: 56.2 µM [inhibitor, single point] | –
Cc1ccc2[nH]c(C)c(/C=N/Nc3nc4ccccc4s3)c2c1 | – | inactive: -24.9%
Cc1cc(C(=O)OCC(=O)N2CCOCC2)c2ccccc2n1 | inconclusive: 39.8 µM [inhibitor, single point] | –
COc1ccc(N=C2C(=Nc3ccc(OC)cc3)N(c3ccccc3)C(=S)N2C(=O)c2ccc(Cl)cc2)cc1 | inconclusive: 2.82 µM [inhibitor, full curve, poor fit] | –
O=C(NNc1ccccc1)C(=O)NNS(=O)(=O)c1ccc(CCCl)cc1 | – | inactive: 50.5%
CC(C)(C)OC(=O)NC(Cc1ccccc1)C(=O)NC1COC2CC(n3ccc(=O)[nH]c3=O)OC12 (stereo not given) | inconclusive: 39.8 µM [inhibitor, single point] | –

Compound | Potency | activity change, negative = inhibition
Cc1ccc(S(=O)(=O)Nc2cc(Cl)c(O)c3ncccc23)cc1 | active: 79.4 µM | –
Cc1nnc(N2CCC(C(=O)NCCc3ccccc3)CC2)c2nn(-c3ccc(Cl)cc3)c(C)c12 | inconclusive: 17.8 µM [inhibitor, partial curve] | –
NC(=O)CCC(NC(=O)c1ccc(Cl)cc1)C(=O)O (stereo not given) | – | inactive: 45.5%
Nc1ccccc1NC1CCCCC1 | inconclusive: 56.2 µM [inhibitor, single point] | –
C/C(CC(C)C)=N/Nc1ccc([N+](=O)[O-])cc1[N+](=O)[O-] | inconclusive: 11.2 µM [inhibitor, full curve, poor fit] | –
O=C1C(Cl)=C(N2CCCCC2)C(=O)N1c1ccccc1Cl | – | inactive: 125%
CCN(c1ccc(NC(=O)COC(=O)C2CCN(c3ccc(C(F)(F)F)cn3)CC2)cc1)C(C)C | inconclusive: 11.2 µM [inhibitor, partial curve, poor fit] | –
CC1CN(C(=S)c2cccc([N+](=O)[O-])c2)CC(C)O1 (stereo not given) | inconclusive: 8.91 µM [inhibitor, full curve] | –
O=C(O)CSc1nnc(-c2cccs2)n1-c1ccc(Cl)cc1 | inconclusive: 6.31 µM [inhibitor, full curve] | –
CC(=O)Nc1ccc2c(c1)C(=Nc1cccc(C)c1)c1ccccc1-2 | inconclusive: 44.7 µM [inhibitor, partial curve, poor fit] | –
Cc1ccc(-c2nc3s/c(=C\c4ccco4)c(=O)n3n2)cc1 | – | inactive: -14.2%
O=C(c1ccc(=O)oc1)N1CCOCC1 | active: 22.4 µM | –
CCOc1ccc(OCCOCCn2ccnc2)cc1 | inconclusive: 44.7 µM [inhibitor, partial curve] | –
CN(CCNC(=O)c1c[nH]c2c1ccc1ccccc12)CCNC(=O)c1c[nH]c2c1ccc1ccccc12 | inconclusive: 10 µM [inhibitor, full curve, poor fit] | –
Cc1ccccc1CN1CCN(CC(=O)NCc2ccccc2Cl)C1=O | – | inactive: -13.1%
CC(=O)CCn1cc([N+](=O)[O-])nc1C | – | inactive: 26.6%
Fc1ccc2c(c1)NC(c1ccncc1)=NC(c1cccs1)=N2 | – | inactive: 3.92%
COc1ccc(C)cc1NCc1cccc(OC)c1OC | inconclusive: 20 µM [inhibitor, partial curve, poor fit] | –
Cc1ccccc1OCCN1CCCC1 | inconclusive: 17.8 µM [inhibitor, full curve, poor fit] | –
COCCOC(=O)C1=C(C)N(c2ccccc2)C(=S)NC1c1ccccc1C(F)(F)F (stereo not given) | – | inactive: 38%
Cc1cccc(-n2nc([N+](=O)[O-])c(=NC3CCN(Cc4ccccc4)CC3)n2O)c1 | inconclusive: 28.2 µM [inhibitor, full curve] | –
COc1cccc(OC)c1OCCCNC1CCCC1 | inconclusive: 44.7 µM [inhibitor, partial curve, poor fit] | –
O=C(CN1CCN(C(=O)C2CCN(C(=O)/C=C/c3ccccc3)CC2)CC1)Nc1ccccc1Cl | – | inactive: 29.5%
ClC(Cl)(c1nnnn1-c1ccccc1)c1nnnn1-c1ccccc1 | inconclusive: 10 µM [inhibitor, full curve, poor fit] | –

Compound | Potency | activity change, negative = inhibition
CCOC(=O)c1c(CSc2cccs2)n(C)c2cc(Br)c(O)c(CN(C)C)c12 | inconclusive: 56.2 µM [inhibitor, partial curve] | –
CCN(CC)S(=O)(=O)c1ccc(OC)c(NC(=O)Cc2cccs2)c1 | inconclusive: 35.5 µM [inhibitor, partial curve] | –
Nc1ccccc1N=c1ssnc1Cl | – | inactive: -13.2%
CCOc1ccc(Nc2cc(C)nc3nc(C)nn23)cc1 | – | inactive: 4%
Nc1nc(-c2ccco2)c(-c2ccco2)s1 | inconclusive: 56.2 µM [inhibitor, partial curve, poor fit] | –
O=C(CN1CCN(c2ccccn2)CC1)N1c2ccccc2CCc2ccccc21 | active: 17.8 µM | –
COc1ccc(Nc2ccc(S(=O)(=O)N3CCCCC3)cc2[N+](=O)[O-])cc1Cl | inconclusive: 11.2 µM [inhibitor, full curve] | –
CC(C)(C)N=Cc1cc(-c2ccccc2)sc1O | inconclusive: 7.94 µM [inhibitor, partial curve, poor fit] | –
O=C(CCO)c1ccc(O)cc1 | inconclusive: 10 µM [inhibitor, full curve, poor fit] | –
CN(C)c1ccc(NS(=O)(=O)c2cccc(Cl)c2)cc1 | inconclusive: 44.7 µM [inhibitor, partial curve] | –
CCOc1ccccc1OCCCC(=O)N1CCN(S(=O)(=O)c2ccc(C)cc2)CC1 | inconclusive: 31.6 µM [inhibitor, single point] | –
Cn1c(=O)[nH]c(=O)c2c1nc(SCCO)n2CC(O)COc1ccccc1 (stereo not given) | inconclusive: 12.6 µM [inhibitor, full curve] | –
CCCCC(CC)CN1C(=O)/C(=C/c2ccncc2)SC1=S (stereo not given) | inconclusive: 8.91 µM [inhibitor, full curve, poor fit] | –
Cc1nn(-c2ccccc2)c2c1C(c1ccco1)C(C#N)=C(N)O2 (stereo not given) | – | inactive: -38.6%
CCOC(=O)C1CCCCN1Cc1ccc(F)c(Br)c1 (stereo not given) | inconclusive: 31.6 µM [inhibitor, partial curve] | –
O=C(Nc1cccc(S(=O)(=O)NC2=NCCC2)c1)c1cc(-c2ccco2)nc2ccccc12 | inconclusive: 56.2 µM [inhibitor, partial curve, poor fit] | –
N#C/C(=C\c1ccc(-c2cc(Cl)ccc2Cl)o1)C(=O)Nc1ccccc1C(=O)O | inconclusive: 22.4 µM [inhibitor, full curve] | –
Cc1cc(=O)[nH]c(SCC(=O)NCc2ccco2)n1 | – | inactive: -29.9%
CC[C@]12C(=O)N(C)C[C@H]([C@@H]3C(=O)N(Cc4ccccc4)C(=O)[C@@H]31)N2C(=O)c1ccccc1 | – | inactive: 26.7%
C#CC(CC)(CC)NC(=O)c1nn(-c2ccccc2Cl)c(C)cc1=O | – | inactive: 0.813%
Cc1ccc(S(=O)(=O)N2C(=O)C(c3ccccc3)SC2=Nc2ccccc2)cc1 (stereo not given) | inconclusive: 31.6 µM [inhibitor, partial curve] | –
COc1cc(C)c(CN2CCN(c3ncccn3)CC2)cc1C | inconclusive: 56.2 µM [inhibitor, single point] | –
